# Results: PubChem BioAssay (NCI)
# “And” between values parts separate entries of the source, which are not always exact repeats. Identical values can stand only once.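 48-hour exposure; five concentrations; linearly interpolated endpoints. Here, GI50 denotes the concentration required for 50% inhibition of growth. TGI: concentration producing complete growth inhibition.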
# System: NCI-H322M lung
# Test: DTP human tumour cell line panel, 48 h
SMILES,TGI,GI50 [µM]
COC1CC2C3/C(=N/Nc4ccc([N+](=O)[O-])cc4[N+](=O)[O-])CCC2(C)C3C1 (centres undefined),> 100 µM,–
CCOc1nc(OCC)nc(-c2cccn2-c2ccccc2)n1,> 100 µM,–
COc1cc(/C=N\O)cc(/C=N/O)c1O,> 100 µM,–
COC(OC)(c1ccccc1)C(Br)Br,> 100 µM,–
COc1cc2cc3c4c(cc(OC)c(OC)c4c2cc1OC)CCN3,> 100 µM,–
Cc1nnc(N)nc1C/C=C/C(Sc1ccc(Cl)cc1)c1ccccc1 (centres undefined),23.4 µM,–
CCOC(=O)c1nc2cc(C(F)(F)F)ccc2nc1Nc1cc(OC)c(OC)c(OC)c1,> 100 µM,–
C=C1CC(Cn2ccc(=O)[nH]c2=O)(c2ccc(OC)cc2)OC1=O (centres undefined),> 100 µM,–
O=C(NCCc1[nH]nc2c1C(=O)C=C(Nc1ccccc1)C2=O)OCc1ccccc1,> 100 µM,–
O=c1c2ccccc2nc2n1CCc1c-2[nH]c2ccc(Br)cc12,> 100 µM,–
N#Cc1c(-c2ccccc2)cc(-c2ccccc2)n(CC(=O)NO)c1=O,90.9 µM,12.4
Cc1c(C(=O)OCc2ccccc2)[n+](=O)c2ccccc2n1[O-],> 100 µM,–
COc1cc(C(=O)/C=C/c2ccc(OCCCCCC[P+](c3ccccc3)(c3ccccc3)c3ccccc3)cc2)cc(OC)c1OC,2.16 µM,0.943
C/C(=N\O)c1ccc2cc(Br)c3ccccc3c2c1,75.3 µM,–
O=C(Nc1ccccc1-c1nn(CO)c(=S)n(CO)c1=O)C(F)(F)F,> 100 µM,–
CCN1CCC(Oc2c(C#N)ncc3[nH]c4ncccc4c23)CC1,> 50 µM,6.58
O=C(N/N=C(/COc1ccccc1Cl)N=Cc1cccnc1)c1ccncc1,> 100 µM,–
CC(=O)c1nc2ccccc2n1CCN1CCN(C)CC1,> 100 µM,5.02
O=C(O)CN1CCNCCNCC1,> 100 µM,–
c1ccc(CSc2nc(N3CCCCC3)c3cn[nH]c3n2)cc1,74.2 µM,–
O=C1NC(N/N=C/c2c[nH]c3ccccc23)=N/C1=C\c1cccs1,> 100 µM,–
NC(=O)SCC(=O)Nc1ccc2cccc3c2c1CC3,> 100 µM,–
O=C(CCCn1cnc([N+](=O)[O-])n1)NCCCn1ccnc1[N+](=O)[O-],> 100 µM,–
Nc1ncnc2c1ncn2C1OC(CSCc2ccc(Cl)cc2)C(O)C1O (centres undefined),> 100 µM,–
COc1ccc2c(c1)CC[C@@H]1[C@@H]2CC[C@]2(C)C(=O)/C(=C/c3ccc(C#N)cc3)C[C@@H]12,> 100 µM,–
CCOC(=O)CCC(C(=O)OCC)n1nnc2ccc(Nc3c(C)[n+]([O-])c4ccc(Cl)cc4[n+]3[O-])cc21 (centres undefined),> 100 µM,–
O=C(CCl)Nc1ccc2c(c1)C(=O)c1ccccc1C2=O,13.5 µM,5.57

SMILES,TGI,GI50 [µM]
Cc1cc(OCC(O)CO)ccc1-c1ccccc1 (centres undefined),> 100 µM,–
O=[N+]([O-])c1cccnc1NCC1(CO)CCCC1,71.1 µM,–
c1ccc(-c2c(-c3ccccc3)[n+](Cc3ccc4ccccc4c3)c(-c3cccc4ccccc34)n2Cc2ccc3ccccc3c2)cc1,1.3 µM,0.355
NN/C(=N\S(=O)(=O)c1cc2ccccc2o1)Nc1ccc(Cl)cc1,> 100 µM,–
Nc1cc2c([nH]c[n+]2CC#CCCl)c(SCC#CCCl)n1,3.59 µM,1.74
ClCCC[Si]12OCCN(CCO1)CCO2,> 100 µM,–
Cn1c(=O)c2nc(N3CCOCC3)cnc2n(C)c1=O,> 100 µM,–
CCN(CC)CCC(=O)NC1c2ccccc2Oc2c(C)cccc21 (centres undefined),> 100 µM,–
O=C(CNc1cccc(Cl)c1)Nn1c(-c2ccccc2)nc2ccccc2c1=O,28.8 µM,–
COC(=O)c1c(OC(C)=O)ccc2c1c1c(OC(C)=O)c3ccccc3c(OC(C)=O)c1n2C,> 100 µM,–
CCN(Cc1ccncc1)c1ccc(CO)c(Cl)c1,> 100 µM,58.9
O=C(NCCCCNC(=O)OCc1ccc2c(Cl)cc(Cl)c(O)c2n1)OCc1ccc2c(Cl)cc(Cl)c(O)c2n1,> 100 µM,4.69
CC(=O)OCC1OC(Sc2nc(-c3ccc(Cl)cc3)c(C#N)c(=O)n2C2OC(COC(C)=O)C(OC(C)=O)C(OC(C)=O)C2OC(C)=O)C(OC(C)=O)C(OC(C)=O)C1OC(C)=O (centres undefined),> 100 µM and 51.3 µM,–
CN(C)Cc1cc(/C(=C(\C#N)c2ccccc2)c2ccc(O)cc2)ccc1O,32.3 µM,–
CC(=O)c1sc2c(c1OC(=O)c1ccc(Cl)cc1Cl)c(=O)n(-c1ccccc1)c(=S)n2-c1ccccc1,21.1 µM,–
COc1cc2cccc(N=Cc3ccccc3Cl)c2cc1OC,> 100 µM,–
COc1ccc(/C=C(\C#N)c2nc3ccccc3c(=O)[nH]2)cc1,> 100 µM,–
C=CCNC(=O)N1CC(C)C(=O)Nc2ccccc21 (centres undefined),> 100 µM,–
O=C1c2ccccc2-c2c1c(-c1ccc(O)cc1O)nc1ccc3ccccc3c21,> 100 µM,–
CC(=O)CC1(OC(=O)C2C(C=C(C)C)C2(C)C)C(=O)Nc2ccccc21 (centres undefined),> 100 µM,–
COc1ccc2c(c1)C(=O)c1c-2n(CCCCl)c(=O)c2cc(OC)c(OC)cc12,> 100 µM,48.4
C=CN1CCN(c2ccccc2)P1(=O)Oc1ccccc1 (centres undefined),> 100 µM,–
O=C(O)C1(c2ccccc2)CCCNCC1 (centres undefined),> 100 µM,–
CN(C)CCNC(=O)c1ccc(Cl)c2ccc(-c3ccccc3)nc12,14.8 µM,–
O=C(O)c1cc2ccccc2c(N=Nc2ccc(S(=O)(=O)O)cc2)c1O,> 100 µM,–
N#CCCN(CCCN(C(=O)N(c1ccccc1)c1ccccc1)c1ccccc1)C(=O)Nc1ccccc1,> 100 µM,–
Cc1c(-c2ccccc2)c(C#N)c2nnn(-c3ccc([N+](=O)[O-])cc3)c(=O)n12,89 µM,–
